# Results from the supplement of paper PMC8728848.
# This is one part of the list.
# Columns and labels:
# Assay in all cases: glycan array binding signal (z-score within array); higher = stronger binding
# Conditions in all cases: glycan notation: IUPAC condensed, linker removed
# [1] = target: Fuc(a1-2)Gal(b1-4)GlcNAc(b1-3)Gal(b1-4)GlcNAc(b1-3)Gal(b1-4)GlcNAc
# Summary of the method: (§1)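 The binding signal is a Z-score computed within each array. Data were drawn from 3228 arrays in the Consortium for Functional Glycomics database, restricted to those with a known protein sequence. Scores were averaged over arrays of the same protein sequence at different concentrations or buffers, and over linkers, and negative values can be taken as non-binding.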
# [2] = target: Fuc(a1-2)Gal(b1-4)GlcNAc(b1-3)GalNAc
# Summary of the method: as §1
# [3] = target: Fuc(a1-2)Gal(b1-4)GlcNAc(b1-3)[Fuc(a1-2)Gal(b1-4)GlcNAc(b1-6)]GalNAc
# Summary of the method: as §1
# [4] = target: Fuc(a1-2)Gal(b1-4)GlcNAc(b1-3)[Fuc(a1-3)[Gal(b1-4)]GlcNAc(b1-6)]Gal(b1-4)Glc
# Summary of the method: as §1
# [5] = target: Fuc(a1-2)Gal(b1-4)GlcNAc(b1-6)GalNAc
# Summary of the method: as §1
# [6] = target: Fuc(a1-2)Gal(b1-4)GlcNAc6S
# Summary of the method: as §1
# [7] = target: Fuc(a1-2)Gal(b1-4)[Fuc(a1-3)]GlcNAc
# Summary of the method: as §1
# [8] = target: Fuc(a1-2)Gal(b1-4)[Fuc(a1-3)]GlcNAc(b1-2)Man(a1-3)[Fuc(a1-2)Gal(b1-4)[Fuc(a1-3)]GlcNAc(b1-2)Man(a1-6)]Man(b1-4)GlcNAc(b1-4)[Fuc(a1-6)]GlcNAc
# Summary of the method: as §1
# [9] = target: Fuc(a1-2)Gal(b1-4)[Fuc(a1-3)]GlcNAc(b1-2)[Fuc(a1-2)Gal(b1-4)[Fuc(a1-3)]GlcNAc(b1-4)]Man(a1-3)[Fuc(a1-2)Gal(b1-4)[Fuc(a1-3)]GlcNAc(b1-2)Man(a1-6)]Man(b1-4)GlcNAc(b1-4)GlcNAc
# Summary of the method: as §1
# [10] = target: Fuc(a1-2)Gal(b1-4)[Fuc(a1-3)]GlcNAc(b1-3)Gal(b1-4)[Fuc(a1-3)]GlcNAc
# Summary of the method: as §1
# [11] = target: Fuc(a1-2)Gal(b1-4)[Fuc(a1-3)]GlcNAc(b1-3)Gal(b1-4)[Fuc(a1-3)]GlcNAc(b1-3)Gal(b1-4)[Fuc(a1-3)]GlcNAc
# Summary of the method: as §1
# [12] = target: Fuc(a1-2)Gal(b1-4)[Fuc(a1-3)]GlcNAc(b1-3)GalNAc
# Summary of the method: as §1
# [13] = target: Fuc(a1-2)Gal(b1-4)[Fuc(a1-3)]GlcNAc(b1-3)[Neu5Ac(a2-6)Gal(b1-4)GlcNAc(b1-6)]Gal(b1-4)Glc
# Summary of the method: as §1
# [14] = target: Fuc(a1-2)Gal3S(b1-4)GlcNAc
# Summary of the method: as §1
# [15] = target: Fuc(a1-2)Gal6S(b1-3)GlcNAc
# Summary of the method: as §1
# [16] = target: Fuc(a1-2)Gal6S(b1-3)GlcNAc6S
# Summary of the method: as §1
# Fuc(a1-2)Gal6S(b1-4)Glc = target: Fuc(a1-2)Gal6S(b1-4)Glc
# Summary of the method: as §1
# [17] = target: Fuc(a1-2)Gal6S(b1-4)Glc6S
# Summary of the method: as §1
# Fuc(a1-2)[Gal(a1-3)]Gal = target: Fuc(a1-2)[Gal(a1-3)]Gal
# Summary of the method: as §1
# [18] = target: Fuc(a1-2)[Gal(a1-3)]Gal(b1-3)GalNAc
# Summary of the method: as §1
# [19] = target: Fuc(a1-2)[Gal(a1-3)]Gal(b1-3)GalNAc(b1-3)Gal(a1-4)Gal(b1-4)Glc
# Summary of the method: as §1
# [20] = target: Fuc(a1-2)[Gal(a1-3)]Gal(b1-3)GlcNAc
# Summary of the method: as §1
# [21] = target: Fuc(a1-2)[Gal(a1-3)]Gal(b1-3)GlcNAc(b1-2)Man(a1-3)[Fuc(a1-2)[Gal(a1-3)]Gal(b1-3)GlcNAc(b1-2)Man(a1-6)]Man(b1-4)GlcNAc(b1-4)GlcNAc
# Summary of the method: as §1
# [22] = target: Fuc(a1-2)[Gal(a1-3)]Gal(b1-3)GlcNAc(b1-2)Man(a1-3)[Fuc(a1-2)[Gal(a1-3)]Gal(b1-3)GlcNAc(b1-2)Man(a1-6)]Man(b1-4)GlcNAc(b1-4)[Fuc(a1-6)]GlcNAc
# Summary of the method: as §1
# [23] = target: Fuc(a1-2)[Gal(a1-3)]Gal(b1-3)GlcNAc(b1-3)GalNAc
# Summary of the method: as §1
# [24] = target: Fuc(a1-2)[Gal(a1-3)]Gal(b1-3)GlcNAc(b1-6)GalNAc
# Summary of the method: as §1
# [25] = target: Fuc(a1-2)[Gal(a1-3)]Gal(b1-4)Glc
# Summary of the method: as §1
# [26] = target: Fuc(a1-2)[Gal(a1-3)]Gal(b1-4)GlcNAc
# Summary of the method: as §1
# [27] = target: Fuc(a1-2)[Gal(a1-3)]Gal(b1-4)GlcNAc(b1-2)Man
# Summary of the method: as §1
# [28] = target: Fuc(a1-2)[Gal(a1-3)]Gal(b1-4)GlcNAc(b1-2)Man(a1-3)[Fuc(a1-2)[Gal(a1-3)]Gal(b1-4)GlcNAc(b1-2)Man(a1-6)]Man(b1-4)GlcNAc(b1-4)GlcNAc
# Summary of the method: as §1
# [29] = target: Fuc(a1-2)[Gal(a1-3)]Gal(b1-4)GlcNAc(b1-2)Man(a1-3)[Fuc(a1-2)[Gal(a1-3)]Gal(b1-4)GlcNAc(b1-2)Man(a1-6)]Man(b1-4)GlcNAc(b1-4)[Fuc(a1-6)]GlcNAc
# Summary of the method: as §1
# [30] = target: Fuc(a1-2)[Gal(a1-3)]Gal(b1-4)GlcNAc(b1-3)GalNAc
# Summary of the method: as §1
# [31] = target: Fuc(a1-2)[Gal(a1-3)]Gal(b1-4)GlcNAc(b1-3)[Fuc(a1-2)[Gal(a1-3)]Gal(b1-4)GlcNAc(b1-6)]GalNAc
# Summary of the method: as §1
# [32] = target: Fuc(a1-2)[Gal(a1-3)]Gal(b1-4)GlcNAc(b1-6)GalNAc
# Summary of the method: as §1
# [33] = target: Fuc(a1-2)[Gal(a1-3)]Gal(b1-4)[Fuc(a1-3)]Glc
# Summary of the method: as §1
# [34] = target: Fuc(a1-2)[Gal(a1-3)]Gal(b1-4)[Fuc(a1-3)]GlcNAc
# Summary of the method: as §1
# [35] = target: Fuc(a1-2)[Gal(a1-3)]Gal(b1-4)[Fuc(a1-3)]GlcNAc(b1-3)GalNAc
# Summary of the method: as §1
# [36] = target: Fuc(a1-2)[Gal(a1-4)]Gal(b1-4)GlcNAc
# Summary of the method: as §1
# [37] = target: Fuc(a1-2)[GalNAc(a1-3)]Gal
# Summary of the method: as §1
# [38] = target: Fuc(a1-2)[GalNAc(a1-3)]Gal(b1-3)GalNAc(a1-3)[Fuc(a1-2)]Gal(b1-4)GlcNAc
# Summary of the method: as §1
# [39] = target: Fuc(a1-2)[GalNAc(a1-3)]Gal(b1-3)GalNAc(b1-3)Gal(a1-4)Gal(b1-4)Glc
# Summary of the method: as §1
# [40] = target: Fuc(a1-2)[GalNAc(a1-3)]Gal(b1-3)GlcNAc
# Summary of the method: as §1
# [41] = target: Fuc(a1-2)[GalNAc(a1-3)]Gal(b1-3)GlcNAc(b1-2)Man(a1-3)[Fuc(a1-2)[GalNAc(a1-3)]Gal(b1-3)GlcNAc(b1-2)Man(a1-6)]Man(b1-4)GlcNAc(b1-4)GlcNAc
# Summary of the method: as §1
# [42] = target: Fuc(a1-2)[GalNAc(a1-3)]Gal(b1-3)GlcNAc(b1-2)Man(a1-3)[Fuc(a1-2)[GalNAc(a1-3)]Gal(b1-3)GlcNAc(b1-2)Man(a1-6)]Man(b1-4)GlcNAc(b1-4)[Fuc(a1-6)]GlcNAc
# Summary of the method: as §1
# [43] = target: Fuc(a1-2)[GalNAc(a1-3)]Gal(b1-3)GlcNAc(b1-3)GalNAc
# Summary of the method: as §1
binder,measurement,setting,value
CBM40 CPF071 (Clostridium perfringens) (protein) MAHHHHHHVGTGSNDDDDKSPDPMLSSLGEYKDINLESSNASNITYDLEKYKNLDEGTIVVRFNSKDSKIQSLLGISNSKTKNGYFNFYVTNSRVGFELRNQKNEGNTQNGTENLVHMYKDVALNDGDNTVALKIEKNKGYKLFLNGKMIKEVKDTNTKFLNNIENLDSAFIGKTNRYGQSNEYNFKGNIGFMNIYNEPLGDDYLLSKTGETK,glycan array binding signal (z-score),[1],0.09
same,glycan array binding signal (z-score),[2],-0.614
same,glycan array binding signal (z-score),[3],-0.395
same,glycan array binding signal (z-score),[4],2.74
same,glycan array binding signal (z-score),[5],-0.375
same,glycan array binding signal (z-score),[6],-0.165
same,glycan array binding signal (z-score),[7],0.074
same,glycan array binding signal (z-score),[8],-0.075
same,glycan array binding signal (z-score),[9],-0.159
same,glycan array binding signal (z-score),[10],-0.457
same,glycan array binding signal (z-score),[11],0.635
same,glycan array binding signal (z-score),[12],-0.448
same,glycan array binding signal (z-score),[13],-0.343
same,glycan array binding signal (z-score),[14],-0.643
same,glycan array binding signal (z-score),[15],-0.078
same,glycan array binding signal (z-score),[16],0.289
same,glycan array binding signal (z-score),Fuc(a1-2)Gal6S(b1-4)Glc,-0.398
same,glycan array binding signal (z-score),[17],0.672
same,glycan array binding signal (z-score),Fuc(a1-2)[Gal(a1-3)]Gal,-0.162
same,glycan array binding signal (z-score),[18],-0.316
same,glycan array binding signal (z-score),[19],0.551
same,glycan array binding signal (z-score),[20],-0.142
same,glycan array binding signal (z-score),[21],-0.315
same,glycan array binding signal (z-score),[22],0.077
same,glycan array binding signal (z-score),[23],-0.605
same,glycan array binding signal (z-score),[24],-0.443
same,glycan array binding signal (z-score),[25],0.117
same,glycan array binding signal (z-score),[26],-0.217
same,glycan array binding signal (z-score),[27],-0.058
same,glycan array binding signal (z-score),[28],-0.308
same,glycan array binding signal (z-score),[29],-0.137
same,glycan array binding signal (z-score),[30],-0.107
same,glycan array binding signal (z-score),[31],0.056
same,glycan array binding signal (z-score),[32],-0.209
same,glycan array binding signal (z-score),[33],-0.299
same,glycan array binding signal (z-score),[34],-0.541
same,glycan array binding signal (z-score),[35],-0.196
same,glycan array binding signal (z-score),[36],-0.244
same,glycan array binding signal (z-score),[37],-0.348
same,glycan array binding signal (z-score),[38],-0.262
same,glycan array binding signal (z-score),[39],0.084
same,glycan array binding signal (z-score),[40],-0.569
same,glycan array binding signal (z-score),[41],-0.257
same,glycan array binding signal (z-score),[42],-0.332
same,glycan array binding signal (z-score),[43],-0.196
